In PubChem BioAssay AID686979 (National Center for Advancing Translational Sciences (NCATS), 2013):
In all, about 420,000 compounds went through this assay and about 50,000 (12%) were called active. The shares of active, inactive and inconclusive entries below differ from those in the screen. Calls come from the whole dose curve; as a rule, active = well fitted inhibition curve with a large enough effect; inconclusive = small, poorly fitted or top-dose-only effect; inactive = flat fitted curve, though single readings scatter. No potency is given beside an inconclusive call; the fits are too rough.

Experiment: qHTS for Inhibitors of human tyrosyl-DNA phosphodiesterase 1 (TDP1): qHTS in cells in presence of CPT; note: nearly all actives have a fitted effect of over 55% in size
Conditions: chicken DT40 Tdp1-/-;hTDP1 cells + 20 nM CPT, ATP luminescence, 48 h; activity change, negative = growth inhibition: at 46.2 µM (top of the series) unless noted
In short: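 Chicken DT40 Tdp1-/- cells complemented with human TDP1, 400 cells/well, exposed to compounds plus 20 nM camptothecin for at least 48 h at 37 C; viability read as ATP content by CellTiter-Glo luminescence.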
% is set by controls: 0 for no effect and ±100 for the full control effect; potency is the fitted concentration of half-maximal effect; tags give direction and shape of the fitted curve.

SMILES | Potency | activity change, negative = growth inhibition
COc1ccc(/C=N/Nc2nc(-c3ccc(Cl)cc3)cc(C(F)(F)F)n2)c(OC)c1 | inconclusive [inhibitor, single point] | –
O=C(Oc1ccccc1/C=C\C(=O)c1cc2ccccc2o1)c1ccccc1 | active: 7.31 µM | –
Cc1ccc(/C=N/N=C2/NC(=O)C(CC(=O)Nc3ccc(Cl)cc3)S2)o1 (stereo unspecified) | inconclusive [inhibitor, single point] | –
O=C(NCCc1ccc(Cl)cc1)C1CCC(CNc2c(N3CCCCC3)c(=O)c2=O)CC1 (stereo unspecified) | inconclusive [inhibitor, single point] | –
Cc1c(C(=O)Nc2ccc(OC(F)(F)F)cc2)sc2nc3n(c(=O)c12)CCC3 | inconclusive [inhibitor, single point] | –
O=C(NCCCN1CCOCC1)c1cccc(S(=O)(=O)N2CCc3ccccc32)c1 | inconclusive [inhibitor, single point] | –
CCOc1cc(C2NC(=O)NC(C)=C2C(=O)OCc2ccccc2)ccc1O (stereo unspecified) | inconclusive [inhibitor, partial curve] | –
COc1cc(-c2nnc(SCC(=O)c3cc(C)n(CC4CCCO4)c3C)o2)cc(OC)c1OC (stereo unspecified) | active: 20.6 µM | –
c1cc2c3c(cccc3c1)-c1cnccc1-2 | – | inactive: 15%
CNC(=S)N/N=C/c1ccco1 | inconclusive [inhibitor, single point] | –
Cc1ccc(-c2nc(SCC(=O)Nc3cc(S(=O)(=O)N4CCCCC4)ccc3Cl)n[nH]2)cc1 | inconclusive [inhibitor, single point] | –
CCOc1ccc(CNC(=O)C2CCCCN2S(=O)(=O)c2ccc(F)cc2)cc1OC (stereo unspecified) | – | inactive: -26.1%
COc1ccc(/C=N/NC(=O)c2cccnc2)cc1CN1CCc2cc(OC)c(OC)cc2C1C (stereo unspecified) | – | inactive: -1.93%
COc1ccc(N(C(=O)c2snc(C(N)=O)c2N)C(C(=O)NC2CCCC2)c2ccc3ncccc3c2)cc1 (stereo unspecified) | inconclusive [inhibitor, single point] | –
COc1ccc2nc(Nc3nc(CSc4nnnn4-c4ccccc4)cc(=O)[nH]3)nc(C)c2c1 | inconclusive [inhibitor, single point] | –
C#CCOCCOCCOCCNc1nc(N2CCN(C(=O)[C@H](CCCCN)n3cc([C@@H](N)CC(C)C)nn3)CC2)nc(N2CCN(C(=O)[C@H](Cc3ccc(O)cc3)n3cc([C@@H](N)CC(C)C)nn3)CC2)n1 | – | inactive: 0.253%
O=C(c1ccc2c(c1)N(Cc1ccccc1F)C(=O)c1ccccc1S2(=O)=O)N1CCN(c2ccccn2)CC1 | active: 25.9 µM | –
COc1ccc(C2=NN(C(=O)c3ccco3)C(c3cc4ccccc4nc3Cl)C2)cc1 (stereo unspecified) | inconclusive [inhibitor, single point] | –
CC(C)c1nc2ccc(Br)cn2c1NC1CCCC1 | – | inactive: -2.32%
CCn1cc(S(=O)(=O)c2cccc(C)c2)c(=O)c2cc(F)c(N3CCCC(C)C3)cc21 (stereo unspecified) | inconclusive [inhibitor, partial curve, poor fit] | –
CC(=O)c1cccc(Oc2cc(NN3CCCCC3)c([N+](=O)[O-])cc2[N+](=O)[O-])c1 | inconclusive [inhibitor, single point] | –
Cc1csc(SCC(=O)Nc2cc(F)ccc2C)n1 | – | inactive: -21.7%

SMILES | Potency | activity change, negative = growth inhibition
C=C(C)CN(Cc1ccccc1)C(=S)Nc1ccccc1 | – | inactive: 18.1%
CCn1c(=O)c2cc(C(=O)NCCCN3CCN(C)CC3)sc2c2ccccc21 | active: 16.4 µM | –
CCCCn1c(N)c(N(CC(C)C)C(=O)c2ccc(-n3c(C)ccc3C)cc2)c(=O)[nH]c1=O | inconclusive [inhibitor, single point] | –
OCCCN1c2ccccc2Nc2nnc(-c3ccccc3)cc21 | inconclusive [inhibitor, single point] | –
N#CCCN(C(=O)COC(=O)c1ccc2c(=O)n3c(nc2c1)CCC3)c1ccccc1 | inconclusive [inhibitor, single point] | –
O=C(NC(=O)c1c(F)cccc1F)Nc1cccc(Oc2ncc(Cl)cn2)c1 | inconclusive [inhibitor, full curve] | –
O=C(CCCc1ccccc1)NCCCN1CCOCC1 | – | inactive: -1.88%
COCCNC(=O)C1(C)CCN(Cc2ccc(C(C)C)cc2)C1 (stereo unspecified) | inconclusive [inhibitor, single point] | –
CCN(CC(=O)NCc1ccc(F)cc1)CC(=O)Nc1cc(S(=O)(=O)N(C)C)ccc1C | inconclusive [inhibitor, single point] | –
CCOC(=O)C1=CCN(S(=O)(=O)c2ccccc2[N+](=O)[O-])C1c1ccc(C)cc1 (stereo unspecified) | inconclusive [inhibitor, single point] | –
Cc1ccccc1Nc1nc(-c2cccnc2)cs1 | inconclusive [inhibitor, partial curve] | –
Cc1sc2ncnc(SCC(=O)c3ccc(O)cc3O)c2c1C | inconclusive [inhibitor, partial curve] | –
CCOC(=O)Cn1c(=O)oc2cc(S(=O)(=O)N3CCn4c3nc3ccccc34)ccc21 | – | inconclusive: -32.8% [inhibitor]
O=C(CSc1n[nH]c(-c2ccccc2Cl)n1)NCc1ccc(F)cc1 | – | inactive: -29.5%
CN1CCN(CCOCCOc2ccc(Br)cc2Cl)CC1 | inconclusive [inhibitor, single point] | –
CCOC(=O)C1=CC[C@@H](c2ccccc2)N(S(=O)(=O)c2ccc(C)cc2)[C@H]1c1ccccc1C | active: 13 µM | –
Cc1cccc(C)c1NC(=S)NC1CCCCC1 | inconclusive [inhibitor, single point] | –
COc1cccc(CN(C)CC(=O)Nc2ccccc2C(=O)Nc2ccccc2)c1OC | inconclusive [inhibitor, single point] | –
Fc1ccc(C(c2ccc(F)cc2)N2CCN(C/C=C\c3ccccc3)CC2)cc1 | active: 23.7 µM | –
CCOC(=O)c1ccc(NC(=O)c2cc(S(=O)(=O)N3CCOCC3)cn2C)cc1 | inconclusive [inhibitor, partial curve, poor fit] | –
CCc1ccc2[nH]c(=O)c(C(c3nnnn3CCOC)N3CCN(c4ccc(F)cc4)CC3)cc2c1 (stereo unspecified) | inconclusive [inhibitor, single point] | –
Cc1ccc(-c2nc(C#N)c(N3CCCCC3)o2)cc1 | inconclusive [inhibitor, partial curve] | –

SMILES | Potency | activity change, negative = growth inhibition
Cc1ccc(OC(=S)Nc2ccc(F)cc2)cc1 | – | inactive: 2.65%
Cc1cc(SCC(=O)N/N=C/c2ccc(O)c(O)c2O)c(C)cc1Br | active: 3.26 µM | –
COc1ccc(S(=O)(=O)NCc2nc3nc(C)cc(C)n3n2)cc1 | inactive | –
Cc1ccc(Nc2c(-c3ccc(Br)o3)nc3ccccn23)cc1 | inconclusive [inhibitor, single point] | –
CCOC(=O)[C@]12CCCC=C1N(Cc1ccccc1)C(=O)[C@H](CC(=O)NCCCOC)C2 | inconclusive [inhibitor, single point] | –
COc1ccc(CCCNC(=O)C2Cc3c(-c4cccc(C(N)=O)c4)ccnc3O2)cc1 (stereo unspecified) | inconclusive [inhibitor, single point] | –
CCn1cc(C(=O)N[C@@H](CCSC)C(=O)NCCCOC)c(=O)c2cc3c(cc21)OCO3 | – | inactive: -0.913%
COc1ccc2[nH]c3c(NCCN(C(C)C)C(C)C)ncnc3c2c1 | active: 16.4 µM | –
Cc1c(NC(=O)OCCNC(=O)COc2ccc(Cl)cc2Cl)sc(=S)n1C | inconclusive [inhibitor, single point] | –
CC(C)NCCOCCOc1ccc(Cl)cc1Br | inconclusive [inhibitor, single point] | –
NC(=O)c1c(NC(=O)CS(=O)(=O)c2ccc(Cl)cc2)sc2c1CCCCC2 | active: 23.1 µM | –
CCC(C)(C)C1CCC2(CC1)NC(=O)N(CC(=O)N(C)CCOc1ccc(Cl)cc1)C2=O (stereo unspecified) | inconclusive [inhibitor, partial curve] | –
CC(=O)/C(=N\Nc1ccc(Cl)cc1)Sc1nnc(-c2ccccc2)n1-c1ccccc1 | inconclusive [inhibitor, single point] | –
CNc1nc(-c2ccccc2)nc(-c2ccc(OC)cc2)c1C#N | – | inactive: 0.399%
COc1ccc(C(CNc2ncnc3sc(C)c(C)c23)N(C)C)cc1 (stereo unspecified) | inconclusive [inhibitor, single point] | –
COc1ccc(/C=C/C(=O)Nc2cccc(C(C)=O)c2)cc1 | inconclusive [inhibitor, single point] | –
O=C(NCCCN1CCN(c2cccc(Cl)c2)CC1)c1sc2ncccc2c1-n1cccc1 | inconclusive [inhibitor, single point] | –
Cc1ccc(-c2nc(CS(=O)(=O)CC(=O)Nc3ccc(Br)cc3F)c(C)o2)cc1 | inconclusive [inhibitor, single point] | –
CCOc1ccc(NC(=O)CSC2=Nc3ccccc3C3=NC(CCC(=O)NCc4ccco4)C(=O)N23)cc1 (stereo unspecified) | inconclusive [inhibitor, partial curve] | –
CCC(=O)Oc1c(Sc2ccc(Cl)cc2)c(C)nn1-c1ccccc1 | inconclusive [inhibitor, partial curve, poor fit] | –
Cc1cc2cc(C)c3nnc(SCC(=O)N4CCN(C(=O)c5ccco5)CC4)n3c2cc1C | inconclusive [inhibitor, partial curve, poor fit] | –
Cc1ccccc1OCc1nc2c3c(ncn2n1)-c1ccccc1CC31CCCC1 | inconclusive [inhibitor, partial curve] | –
